# Like-named read-outs stand apart in the source and are kept apart here.
# Columns and labels:
# D2 receptor = D2 receptor (Homo sapiens (Human), UniProt P14416); test: Dopamine D2 receptor binding test; conditions: [3H]Spiperone, D2 receptor expressed in HEK293 cells; read-out: Affinity of the compound to D2 receptor, Ki value
# From the text: This experiment utilizes the plasmid vector containing the gene of D2 receptor protein for transfecting HEK293 cells by calcium phosphate transfection method.
# (§1) Beckman LS-6500 multifunction liquid scintillation counter.
# [1] = biological target: human recombinant D3 receptor (Homo sapiens (Human), UniProt P35462); test: Dopamine D3 receptor binding test; conditions: [3H]methyl-spiperone 0.3 nM, human recombinant D3 receptor in CHO cells; read-out: Affinity of the compound to D3 receptor, Ki value
# Description: With [^3H]methyl-spiperone (0.3 nM) as the ligand and (+)-butaclamol (10 LM) for determining non-specific binding, binding tests are carried out on human recombinant D3 receptor (expressed in CHO cells).
# 5-HT1A receptor = 5-HT1A receptor (Homo sapiens (Human), UniProt P08908); test: 5-HT1A receptor binding test; conditions: read-out: Affinity of the compound to 5-HT1A receptor, Ki value; [3H]8-OH-DPAT, HEK-293 cells expressing 5-HT1A receptors
# Description: Cells: HEK-293 cells stably expressing 5-HT1A receptors as obtained by gene recombination are cultured for 3-5 days in cell culture medium DMEM supplemented with 10% serum.
# Competitive inhibition ratio of each compound at the concentration of 10 μmol/L to inhibit the binding of [^3H]8-OH-DPAT to 5-HT1A receptor is determined for primary screening.
# The components are mixed to homogeneity, and then the above tubes are transferred to water bath at 30° C. (1 h), removed into ice bath immediately, and suction filtered on Harvest (with ice cold Tris eluate for 5 times).
# 5-HT2A receptor = 5-HT2A receptor (Homo sapiens (Human), UniProt P28223); test: 5-HT2A receptor binding test; conditions: read-out: Affinity of the compound to 5-HT2A receptor, Ki value
# From the text: as §1
# [2] = [3H]-Ketanserin, 5-HT2A receptor expressed in HEK293 cells
# UniProt P28223, sequence (P28223 whole entry): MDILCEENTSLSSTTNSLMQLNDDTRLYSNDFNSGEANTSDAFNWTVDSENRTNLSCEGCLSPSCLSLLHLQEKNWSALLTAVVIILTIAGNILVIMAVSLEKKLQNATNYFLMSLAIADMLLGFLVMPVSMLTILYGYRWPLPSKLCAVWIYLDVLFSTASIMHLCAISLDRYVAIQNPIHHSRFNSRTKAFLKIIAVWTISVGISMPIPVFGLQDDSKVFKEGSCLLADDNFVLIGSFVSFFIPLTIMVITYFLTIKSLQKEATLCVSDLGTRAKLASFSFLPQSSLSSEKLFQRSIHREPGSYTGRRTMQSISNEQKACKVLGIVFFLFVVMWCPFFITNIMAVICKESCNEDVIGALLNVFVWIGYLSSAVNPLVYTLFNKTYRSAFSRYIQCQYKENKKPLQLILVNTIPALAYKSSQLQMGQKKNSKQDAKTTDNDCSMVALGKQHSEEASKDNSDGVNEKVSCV
# UniProt P35462, sequence (P35462 whole entry): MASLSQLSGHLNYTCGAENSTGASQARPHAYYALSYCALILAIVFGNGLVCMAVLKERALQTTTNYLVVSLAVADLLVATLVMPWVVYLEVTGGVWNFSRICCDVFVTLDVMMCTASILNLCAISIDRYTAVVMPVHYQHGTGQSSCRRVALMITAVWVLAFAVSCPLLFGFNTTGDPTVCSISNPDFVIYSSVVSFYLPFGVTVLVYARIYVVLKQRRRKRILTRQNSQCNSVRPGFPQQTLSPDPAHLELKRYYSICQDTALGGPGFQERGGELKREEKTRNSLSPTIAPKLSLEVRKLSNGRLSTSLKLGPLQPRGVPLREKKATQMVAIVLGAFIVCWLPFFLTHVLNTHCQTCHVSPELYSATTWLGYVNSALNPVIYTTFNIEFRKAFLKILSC
# UniProt P14416, sequence (P14416 whole entry): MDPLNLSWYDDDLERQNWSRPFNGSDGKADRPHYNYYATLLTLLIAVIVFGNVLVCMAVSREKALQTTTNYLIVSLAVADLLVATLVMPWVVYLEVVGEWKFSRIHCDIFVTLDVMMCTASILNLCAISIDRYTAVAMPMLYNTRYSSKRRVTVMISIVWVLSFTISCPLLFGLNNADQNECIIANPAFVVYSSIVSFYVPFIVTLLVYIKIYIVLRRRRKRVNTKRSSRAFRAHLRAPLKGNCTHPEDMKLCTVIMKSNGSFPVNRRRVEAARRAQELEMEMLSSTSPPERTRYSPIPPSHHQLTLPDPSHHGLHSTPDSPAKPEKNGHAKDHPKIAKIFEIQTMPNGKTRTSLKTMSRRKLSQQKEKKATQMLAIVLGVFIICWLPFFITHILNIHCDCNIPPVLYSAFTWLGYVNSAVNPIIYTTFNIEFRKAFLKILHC
# UniProt P08908, sequence (P08908 whole entry): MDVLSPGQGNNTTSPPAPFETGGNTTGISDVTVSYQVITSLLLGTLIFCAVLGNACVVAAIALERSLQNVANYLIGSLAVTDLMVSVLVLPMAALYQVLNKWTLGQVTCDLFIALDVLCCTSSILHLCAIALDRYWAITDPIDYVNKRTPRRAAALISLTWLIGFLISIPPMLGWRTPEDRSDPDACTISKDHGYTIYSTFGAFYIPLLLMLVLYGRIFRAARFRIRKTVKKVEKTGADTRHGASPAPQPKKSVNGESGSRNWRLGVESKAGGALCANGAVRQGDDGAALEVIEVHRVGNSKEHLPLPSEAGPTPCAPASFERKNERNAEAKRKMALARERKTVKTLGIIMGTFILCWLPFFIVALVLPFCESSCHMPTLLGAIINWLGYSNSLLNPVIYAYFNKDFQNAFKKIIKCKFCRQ
smiles,measurement,setting,value
"O=S(=O)(N[C@H]1CC[C@@H](CCN2CCN(c3nsc4ccccc34)CC2)CC1)c1cc2ccccc2s1 [II-19, cis-N-(4-(2-(4-(benzo[d]isothiazol-3-yl)piperazin-1-yl)ethyl)cyclohexyl)benzo[b]thienyl-2-sulfamide]",Ki,D2 receptor,1.78 nM
same,Ki,[1],1.7 nM
same,Ki,5-HT1A receptor,7.03 nM
same,Ki,5-HT2A receptor; [2],2.05 nM
"O=C(N[C@H]1CC[C@H](CCN2CCN(c3nsc4ccccc34)CC2)CC1)c1ccc[nH]1 [Compound I-3, trans-N-(4-(2-(4-(benzo[d]isothiazol-3-yl)piperazin-1-yl)ethyl)cyclohexyl)-1H-pyrrolyl-2-carboxamide]",Ki,D2 receptor,0.21 nM
same,Ki,[1],0.31 nM
same,Ki,5-HT1A receptor,0.52 nM
same,Ki,5-HT2A receptor,0.29 nM
"CC(C)(C)c1ccoc1C(=O)N[C@H]1CC[C@H](CCN2CCN(c3nsc4ccccc34)CC2)CC1 [Compound I-8, trans-N-(4-(2-(4-(benzo[d]isothiazol-3-yl)piperazin-1-yl)ethyl)cyclohexyl)-3-tert-butyl furyl-2-carboxamide]",Ki,D2 receptor,18.7 nM
same,Ki,[1],2.78 nM
same,Ki,5-HT1A receptor,10.2 nM
same,Ki,5-HT2A receptor,2.55 nM
"COc1ccc2oc(C(=O)N[C@H]3CC[C@H](CCN4CCN(c5nsc6ccccc56)CC4)CC3)cc2c1 [Compound I-16, trans-N-(4-(2-(4-(benzo[d]isothiazol-3-yl)piperazin-1-yl)ethyl)cyclohexyl)-5-methoxylbenzofuryl-2-carboxamide]",Ki,D2 receptor,1.05 nM
same,Ki,[1],1.87 nM
same,Ki,5-HT1A receptor,6.2 nM
same,Ki,5-HT2A receptor,1.12 nM
"O=C(Nc1ccco1)N[C@H]1CC[C@H](CCN2CCN(c3nsc4ccccc34)CC2)CC1 [IV-4, trans-1-(4-(2-(4-(benzo[d]isothiazol-3-yl)piperazin-1-yl)ethyl)cyclohexyl)-3-(furan-2-yl)urea]",Ki,D2 receptor,0.8 nM
same,Ki,[1],1.04 nM
same,Ki,5-HT1A receptor,2.64 nM
same,Ki,5-HT2A receptor,1.04 nM
"O=C(N[C@H]1CC[C@H](CCN2CCN(c3nsc4ccccc34)CC2)CC1)OCc1cc2ccccc2o1 [III-12, trans-(4-(2-(4-(benzo[d]isothiazol-3-yl)piperazin-1-yl)ethyl)cyclohexyl)benzofuryl-2-methylcarbamate]",Ki,D2 receptor,5.73 nM
same,Ki,[1],6.53 nM
same,Ki,5-HT1A receptor,2.63 nM
same,Ki,5-HT2A receptor,2.58 nM
"O=[N+]([O-])c1ccc2sc(S(=O)(=O)N[C@H]3CC[C@H](CCN4CCN(c5nsc6ccccc56)CC4)CC3)cc2c1 [II-14, trans-N-(4-(2-(4-(benzo[d]isothiazol-3-yl)piperazin-1-yl)ethyl)cyclohexyl)-5-nitrobenzo[b]thienyl-2-sulfamide]",Ki,D2 receptor,6.49 nM
same,Ki,[1],9.37 nM
same,Ki,5-HT1A receptor,12.8 nM
same,Ki,5-HT2A receptor,4.62 nM
"O=C(N[C@H]1CC[C@@H](CCN2CCN(c3nsc4ccccc34)CC2)CC1)c1cc2ccccc2o1 [Compound I-23, cis-N-(4-(2-(4-(benzo[d]isothiazol-3-yl)piperazin-1-yl)ethyl)cyclohexyl)benzofuryl-2-carboxamide]",Ki,D2 receptor,1.73 nM
same,Ki,[1],1.04 nM
same,Ki,5-HT1A receptor,5.48 nM
same,Ki,5-HT2A receptor; [2],1.78 nM
"N#Cc1ccc(C(=O)N[C@H]2CC[C@H](CCN3CCN(c4nsc5ccccc45)CC3)CC2)o1 [Compound I-7, trans-N-(4-(2-(4-(benzo[d]isothiazol-3-yl)piperazin-1-yl)ethyl)cyclohexyl)-5-cyano-furyl-2-carboxamide]",Ki,D2 receptor,4.65 nM
same,Ki,[1],3.21 nM
same,Ki,5-HT1A receptor,4.01 nM
same,Ki,5-HT2A receptor; [2],1.03 nM
"Cc1ccc2sc(S(=O)(=O)N[C@H]3CC[C@H](CCN4CCN(c5nsc6ccccc56)CC4)CC3)cc2c1 [II-13, trans-N-(4-(2-(4-(benzo[d]isothiazol-3-yl)piperazin-1-yl)ethyl)cyclohexyl)-5-methylbenzo[b]thienyl-2-sulfamide]",Ki,D2 receptor,4.5 nM
same,Ki,[1],0.85 nM
same,Ki,5-HT1A receptor,8.66 nM
same,Ki,5-HT2A receptor; [2],0.93 nM
"O=C(NCCc1ccccc1)N[C@H]1CC[C@H](CCN2CCN(c3nsc4ccccc34)CC2)CC1 [IV-2, trans-1-(4-(2-(4-(benzo[d]isothiazol-3-yl)piperazin-1-yl)ethyl)cyclohexyl)-3-phenylethyl urea]",Ki,D2 receptor,9.15 nM
same,Ki,[1],3.81 nM
same,Ki,5-HT1A receptor,8.03 nM
same,Ki,5-HT2A receptor; [2],4.21 nM
"O=C(Nc1ccco1)N[C@H]1CC[C@@H](CCN2CCN(c3nsc4ccccc34)CC2)CC1 [IV-14, cis-1-(4-(2-(4-(benzo[d]isothiazol-3-yl)piperazin-1-yl)ethyl)cyclohexyl)-3-(furan-2-yl)urea]",Ki,D2 receptor,2.07 nM
same,Ki,[1],2.3 nM
same,Ki,5-HT1A receptor,6.09 nM
same,Ki,5-HT2A receptor,1.82 nM
"O=S(=O)(N[C@H]1CC[C@@H](CCN2CCN(c3nsc4ccccc34)CC2)CC1)c1cccs1 [II-16, cis-N-(4-(2-(4-(benzo[d]isothiazol-3-yl)piperazin-1-yl)ethyl)cyclohexyl)thienyl-2-sulfamide]",Ki,D2 receptor,1.75 nM
same,Ki,[1],0.23 nM
same,Ki,5-HT1A receptor,4.48 nM
"O=S(=O)(N[C@H]1CC[C@H](CCN2CCN(c3nsc4ccccc34)CC2)CC1)c1cc[nH]c1 [II-2, trans-N-(4-(2-(4-(benzo[d]isothiazol-3-yl)piperazin-1-yl)ethyl)cyclohexyl)-1H-pyrrolyl-3-sulfamide]",Ki,D2 receptor,3.07 nM
same,Ki,[1],0.57 nM
same,Ki,5-HT1A receptor,7.58 nM
same,Ki,5-HT2A receptor,1.06 nM
"COc1cccc(NC(=O)N[C@H]2CC[C@H](CCN3CCN(c4nsc5ccccc45)CC3)CC2)c1 [IV-9, trans-1-(4-(2-(4-(benzo[d]isothiazol-3-yl)piperazin-1-yl)ethyl)cyclohexyl)-3-(3-methoxyphenyl)urea]",Ki,D2 receptor,3.01 nM
same,Ki,[1],2.71 nM
same,Ki,5-HT1A receptor,2.88 nM
same,Ki,5-HT2A receptor; [2],2.84 nM
"O=C(N[C@H]1CC[C@@H](CCN2CCN(c3nsc4ccccc34)CC2)CC1)c1cccs1 [Compound I-20, cis-N-(4-(2-(4-(benzo[d]isothiazol-3-yl)piperazin-1-yl)ethyl)cyclohexyl)thienyl-2-carboxamide]",Ki,D2 receptor,1.2 nM
same,Ki,[1],0.19 nM
same,Ki,5-HT1A receptor,3.06 nM
same,Ki,5-HT2A receptor; [2],0.57 nM
"O=S(=O)(N[C@H]1CC[C@@H](CCN2CCN(c3nsc4ccccc34)CC2)CC1)c1cc2ccccc2o1 [II-20, cis-N-(4-(2-(4-(benzo[d]isothiazol-3-yl)piperazin-1-yl)ethyl)cyclohexyl)benzofuryl-2-sulfamide]",Ki,D2 receptor,6.4 nM
same,Ki,[1],2.01 nM
same,Ki,5-HT1A receptor,5.19 nM
"O=S(=O)(N[C@H]1CC[C@@H](CCN2CCN(c3nsc4ccccc34)CC2)CC1)c1ccco1 [II-18, cis-N-(4-(2-(4-(benzo[d]isothiazol-3-yl)piperazin-1-yl)ethyl)cyclohexyl)furyl-2-sulfamide]",Ki,D2 receptor,1.22 nM
same,Ki,[1],5.37 nM
same,Ki,5-HT1A receptor,2.54 nM
same,Ki,5-HT2A receptor; [2],0.74 nM
"Cc1ccc(S(=O)(=O)N[C@H]2CC[C@@H](CCN3CCN(c4nsc5ccccc45)CC3)CC2)o1 [II-22, cis-N-(4-(2-(4-(benzo[d]isothiazol-3-yl)piperazin-1-yl)ethyl)cyclohexyl)-5-methylfuryl-2-sulfamide]",Ki,D2 receptor,2.09 nM
same,Ki,[1],1.44 nM
same,Ki,5-HT1A receptor,2.02 nM
same,Ki,5-HT2A receptor,1.65 nM
"O=C(Nc1cc2ccccc2s1)N[C@H]1CC[C@H](CCN2CCN(c3nsc4ccccc34)CC2)CC1 [IV-5, trans-1-(benzo[b]thien-2-yl)-3-(4-(2-(4-(benzo[d]isothiazol-3-yl)piperazin-1-yl)ethyl)cyclohexyl)urea]",Ki,D2 receptor,6.77 nM
same,Ki,[1],10 nM
same,Ki,5-HT1A receptor,14.8 nM
same,Ki,5-HT2A receptor; [2],8.93 nM
"O=C(N[C@H]1CC[C@@H](CCN2CCN(c3nsc4ccccc34)CC2)CC1)c1ccc[nH]1 [Compound I-21, cis-N-(4-(2-(4-(benzo[d]isothiazol-3-yl)piperazin-1-yl)ethyl)cyclohexyl)-1H-pyrrolyl-2-carboxamide]",Ki,D2 receptor,2.96 nM
same,Ki,[1],0.84 nM
same,Ki,5-HT1A receptor,3.78 nM
same,Ki,5-HT2A receptor,0.81 nM
"O=S(=O)(N[C@H]1CC[C@H](CCN2CCN(c3nsc4ccccc34)CC2)CC1)c1cc2cc(Cl)ccc2s1 [II-11, trans-N-(4-(2-(4-(benzo[d]isothiazol-3-yl)piperazin-1-yl)ethyl)cyclohexyl)-5-chlorobenzo[b]thienyl-2-sulfamide]",Ki,D2 receptor,9.76 nM
same,Ki,[1],3.6 nM
same,Ki,5-HT1A receptor,18.4 nM
same,Ki,5-HT2A receptor; [2],3.39 nM
"O=S(=O)(N[C@H]1CC[C@H](CCN2CCN(c3nsc4ccccc34)CC2)CC1)c1c[nH]c2ccccc12 [II-6, trans-N-(4-(2-(4-(benzo[d]isothiazol-3-yl)piperazin-1-yl)ethyl)cyclohexyl)-1H-indolyl-3-sulfamide]",Ki,D2 receptor,3.62 nM
same,Ki,[1],2.76 nM
same,Ki,5-HT1A receptor,17.1 nM
same,Ki,5-HT2A receptor; [2],1.47 nM
"O=C(N[C@H]1CC[C@@H](CCN2CCN(c3nsc4ccccc34)CC2)CC1)c1cc2ccccc2s1 [Compound I-24, cis-N-(4-(2-(4-(benzo[d]isothiazol-3-yl)piperazin-1-yl)ethyl)cyclohexyl)benzo[b]thienyl-2-carboxamide]",Ki,D2 receptor,10.8 nM
same,Ki,5-HT2A receptor,2 nM
"CC(C)(C)c1ccc(S(=O)(=O)N[C@H]2CC[C@H](CCN3CCN(c4nsc5ccccc45)CC3)CC2)s1 [II-10, trans-N-(4-(2-(4-(benzo[d]isothiazol-3-yl)piperazin-1-yl)ethyl)cyclohexyl)-5-tert-butylthienyl-2-sulfamide]",Ki,D2 receptor,17.1 nM
same,Ki,5-HT2A receptor; [2],5.58 nM

# Source: US9550741B2, “Benzoisothiazole compounds and methods of treating schizophrenia” (SHANGHAI INSTITUTE OF PHARMACEUTICAL INDUSTRY, priority 2013, dated 2017)
